Measured values as given in the supplement of paper PMC10126150.
Values marked as one replicate rest on one cluster of the flow cell; about a third of the high ones do not repeat.

Test system: ATP
Test: switch fluorescence ratio, 500 uM ATP over buffer (Cy3 cluster intensity, sum of 5 cycles each) (fold (ratio)); higher = stronger signal-on switching upon ATP binding; sequences stand for … in TCGTCGGCAGCGTCAGATGTGTATAAGAGACAGTTTTTTTTTTTTTTTTTTTTTTTTT…TC
Settings: aptamer strand: ATP DNA aptamer (quencher-CACCTGGGGGAGTATTGCGGAGGAAGG + anchor), 100 nM annealed; ATP concentration: 500 uM; one replicate
In short: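 Values give the fluorescence ratio for each switch-domain sequence, averaged from per-cluster ratios of summed target-cycle to summed buffer-cycle Cy3 intensity. The Cy3-labelled switching-strand clusters sat on a modified Illumina MiSeq flow-cell, were annealed to 100 nM quencher-labelled ATP aptamer, and were imaged in selection buffer, then after 15 min with 500 uM ATP at 22 °C. Five cycles ran with NaOH stripping and re-annealing between them, and clusters outside 100-1000 RFU were excluded.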
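Also: ATP exposure 15 min at 22 °C before imaging.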

## CAATAGTTTG
  switch fluorescence ratio: 0.98

## AGCACCCGGA
  switch fluorescence ratio: 1.05

## CTCGCAAAGG
  switch fluorescence ratio: 3.24

## GGTCCCTAGG
  switch fluorescence ratio: 1.21

## AAACGGTTGG
  switch fluorescence ratio: 0.982

## ATCTTAGAGA
  switch fluorescence ratio: 1

## AGGGGGACCG
  switch fluorescence ratio: 1.09

## AGATATCCCT
  switch fluorescence ratio: 1.05

## TCGAAAGACA
  switch fluorescence ratio: 1.02

## GTCCACTCGG
  switch fluorescence ratio: 0.967

## CGATGATCGT
  switch fluorescence ratio: 0.946

## AACTGACCAG
  switch fluorescence ratio: 1.02

## AAATGTTGGA
  switch fluorescence ratio: 1.01

## AATCCGACG
  switch fluorescence ratio: 1.14

## TTCTCCCG
  switch fluorescence ratio: 1.88

## GACCGTCATA
  switch fluorescence ratio: 1.07

## CGTTGAGAAT
  switch fluorescence ratio: 1.03

## CTGAGTACCA
  switch fluorescence ratio: 0.981

## ATTTTAAAGT
  switch fluorescence ratio: 1.03

## GAAAGCGTAG
  switch fluorescence ratio: 1.03

## CCGTTTCACT
  switch fluorescence ratio: 1.04

## GATGGGCATA
  switch fluorescence ratio: 1

## GTTCATTACA
  switch fluorescence ratio: 1.03

## TTAGTTCCTC
  switch fluorescence ratio: 1.12

## CGCTGCTGGA
  switch fluorescence ratio: 1.05

## AGGTAACGAG
  switch fluorescence ratio: 1

## CTACCTACTA
  switch fluorescence ratio: 1.28

## GTATCCTCCC
  switch fluorescence ratio: 1.25

## TAAGGGAGAT
  switch fluorescence ratio: 1.01

## TCGATGGTAA
  switch fluorescence ratio: 0.97

## GAGGGGGAC
  switch fluorescence ratio: 0.984

## TTATTCGGA
  switch fluorescence ratio: 1.02

## TGGTAGAATC
  switch fluorescence ratio: 1.01

## AATGTTTTAG
  switch fluorescence ratio: 0.999

## AACGAGGCTC
  switch fluorescence ratio: 0.99

## CCATTGGTCA
  switch fluorescence ratio: 1

## AGTCTATTTG
  switch fluorescence ratio: 0.965

## AAGCCCGTTT
  switch fluorescence ratio: 1.02

## TTCGCAGCTC
  switch fluorescence ratio: 3.61

## CGCAGTTATA
  switch fluorescence ratio: 1.22

## GTAGTAGTTA
  switch fluorescence ratio: 1.05

## TGTCCGGCGG
  switch fluorescence ratio: 1

## AAGGGATCCA
  switch fluorescence ratio: 0.995

## GGATTAGAGC
  switch fluorescence ratio: 0.98

## GCCGTCCGCT
  switch fluorescence ratio: 1.08

## GATGGGTTAC
  switch fluorescence ratio: 1.07

## GAGATGCTCC
  switch fluorescence ratio: 1.1

## ACAACTGCAT
  switch fluorescence ratio: 1.09

## CGGTTGTAAC
  switch fluorescence ratio: 1

## GGAATGCTTG
  switch fluorescence ratio: 0.984

## ACGGTTCTGT
  switch fluorescence ratio: 0.968

## CGAGTTAACG
  switch fluorescence ratio: 0.981

## CAAAGTTTCT
  switch fluorescence ratio: 0.994

## CTAGTAATGA
  switch fluorescence ratio: 1.03

## GGGTCGAATG
  switch fluorescence ratio: 0.98

## GCTTGCGTTC
  switch fluorescence ratio: 1.03

## CCTAGGCGCT
  switch fluorescence ratio: 1.14

## AAAATGCTCA
  switch fluorescence ratio: 1.06

## TCTGTCCCGA
  switch fluorescence ratio: 0.972

## ATAAACGTCA
  switch fluorescence ratio: 1.06

## GGGTAGTCAT
  switch fluorescence ratio: 0.998

## TTTGGATAGG
  switch fluorescence ratio: 1.06

## TTCATGTTAC
  switch fluorescence ratio: 1.28

## GAGTTAGGGT
  switch fluorescence ratio: 0.981

## GTTCCTTGTA
  switch fluorescence ratio: 0.99

## GCAGGGGCGC
  switch fluorescence ratio: 1.11

## AGTTATAACC
  switch fluorescence ratio: 0.973

## ACGGCTACT
  switch fluorescence ratio: 1.21

## AGTTGGAGGG
  switch fluorescence ratio: 0.991

## TAGCTGAA
  switch fluorescence ratio: 0.995

## TTGCCCGAGA
  switch fluorescence ratio: 1.01

## GCGCAAGAGA
  switch fluorescence ratio: 1.06

## CATGTAGGAG
  switch fluorescence ratio: 1.01

## AGCCCAGGTT
  switch fluorescence ratio: 2.9

## AAGCTTTTTG
  switch fluorescence ratio: 1.01

## GTCGGCGTAT
  switch fluorescence ratio: 1.07

## ACGCAAAGTC
  switch fluorescence ratio: 2.14

## TCGTTGAGTC
  switch fluorescence ratio: 1.05

## ATTGATCCTC
  switch fluorescence ratio: 1.02

## GTCTTTTTCC
  switch fluorescence ratio: 1.19

## CGTGTGTGCC
  switch fluorescence ratio: 0.988

## AATGGTGTA
  switch fluorescence ratio: 1.02

## ACACAGTTTG
  switch fluorescence ratio: 1.04

## ATGTCACGCA
  switch fluorescence ratio: 1.07

## ATTCAGTGT
  switch fluorescence ratio: 1.01

## CACCCGAGTA
  switch fluorescence ratio: 1.03

## TTAGCTTTCC
  switch fluorescence ratio: 1.48

## TCGTCTGCTG
  switch fluorescence ratio: 0.98

## AGGGCTGTAT
  switch fluorescence ratio: 1.25

## TCATTATAAG
  switch fluorescence ratio: 1.01

## AATGGAT
  switch fluorescence ratio: 1.03

## CTCCATAACT
  switch fluorescence ratio: 1.16

## GGGCGAGTGT
  switch fluorescence ratio: 0.958

## AGTTCGCGTT
  switch fluorescence ratio: 0.998

## CCGGAGAAAG
  switch fluorescence ratio: 2.35

## TAGTGCTTC
  switch fluorescence ratio: 1.05

## TATGTAGTCT
  switch fluorescence ratio: 1.07

## ACGATAACC
  switch fluorescence ratio: 1.26

## AGGCCTGTAT
  switch fluorescence ratio: 1.01

## AATGTGCTTA
  switch fluorescence ratio: 1

## GGCGTGTTCT
  switch fluorescence ratio: 0.982

## GTCTCATGCT
  switch fluorescence ratio: 1.01

## TGGCACGTTT
  switch fluorescence ratio: 0.973

## CGAGGCCATA
  switch fluorescence ratio: 2.28

## CGGTTGGCGC
  switch fluorescence ratio: 1

## ATAGGAATCG
  switch fluorescence ratio: 0.961

## TTTGGTGGGC
  switch fluorescence ratio: 0.992

## GTTCGAGGAC
  switch fluorescence ratio: 1.02

## CCGTTTTGGT
  switch fluorescence ratio: 0.926

## TCATCCATAC
  switch fluorescence ratio: 3.41

## AGAACAGGCG
  switch fluorescence ratio: 1.02

## TAGCCAGGGA
  switch fluorescence ratio: 1.03

## CTGATTATG
  switch fluorescence ratio: 1.03

## ATGGTTCATC
  switch fluorescence ratio: 1.04

## ATGTGAGGAG
  switch fluorescence ratio: 1.05

## CGTCTCTATG
  switch fluorescence ratio: 0.968

## CGAGAGTAGG
  switch fluorescence ratio: 1

## CGGGGTGTAA
  switch fluorescence ratio: 0.965

## TTTTAAAGAC
  switch fluorescence ratio: 0.976

## CAGTAATTGG
  switch fluorescence ratio: 0.994

## CCTTCTCTAT
  switch fluorescence ratio: 1.19

## ACCACGGAGC
  switch fluorescence ratio: 1.21

## GCCTGCCCAA
  switch fluorescence ratio: 1.28

## GTAAGTGCGG
  switch fluorescence ratio: 1.05

## TCACGTTGAA
  switch fluorescence ratio: 1.01

## CCTCGAATGG
  switch fluorescence ratio: 1.47

## CGCATATCGG
  switch fluorescence ratio: 1.43

## AGGCTGCTG
  switch fluorescence ratio: 0.959

## ACTTTTACTG
  switch fluorescence ratio: 1.17

## CTGTGGACAA
  switch fluorescence ratio: 1.01

## ACGGCAGATG
  switch fluorescence ratio: 0.994

## CATTAGGAGG
  switch fluorescence ratio: 0.97

## GCCTTTGGGC
  switch fluorescence ratio: 0.944

## GCACGTCACC
  switch fluorescence ratio: 1.67

## ATCACGGTTA
  switch fluorescence ratio: 1.05

## GGATGGAAGA
  switch fluorescence ratio: 1.03

## CAAGGCAGTA
  switch fluorescence ratio: 1.04

## GCCCTTGAGT
  switch fluorescence ratio: 0.962

## TCGAGCCGCT
  switch fluorescence ratio: 1.01

## ATACGAGCTG
  switch fluorescence ratio: 1.04

## TACAACAATA
  switch fluorescence ratio: 0.953

## GGATAGAGGG
  switch fluorescence ratio: 1.05

## AAAGTCGTGA
  switch fluorescence ratio: 0.982

## GTATCGAGTG
  switch fluorescence ratio: 0.964

## TCAAATTAT
  switch fluorescence ratio: 0.932

## ACGTTTAACA
  switch fluorescence ratio: 1.33

## TACCGTCCCT
  switch fluorescence ratio: 1.14

## GAGTGTGGTA
  switch fluorescence ratio: 1.01

## TGTTCGCCC
  switch fluorescence ratio: 0.99

## GGGGTGGTAC
  switch fluorescence ratio: 1.02

## AGCCGGGG
  switch fluorescence ratio: 0.977

## CGAGGTGCAG
  switch fluorescence ratio: 1.01

## CCTTTTCCAG
  switch fluorescence ratio: 1.03

## TCGAGAG
  switch fluorescence ratio: 1

## CGTGGCCGTC
  switch fluorescence ratio: 0.981

## AGGCGCGAAG
  switch fluorescence ratio: 1.02

## GTGCAACCGA
  switch fluorescence ratio: 1.04

## GGATGTTGTA
  switch fluorescence ratio: 0.951
